We go through 92 sequences from the supplement of paper PMC10338343.

± gives the standard deviation. The full ranking holds about 6,600 sequences; the median of “pre-steady-state target cleavage rate” is about 0.07, and the highest 2% start at about 0.72. Only a part is listed here, and it is no random draw.

The assay relates to MIWI (PIWIL1) piRISC loaded with Kctd7 piRNA (30 nt). Kind of assay: pre-steady-state target cleavage rate (min^-1); MIWI and MILI are mouse PIWI proteins and EfPiwi is from a freshwater sponge; tags in brackets are library labels; higher = faster piRNA-guided slicing of the target. Particulars: guide: Kctd7 piRNA 5'p-UGUUAAUCUCUCAGAGAAGGUGACAGUGAU; auxiliary factor: 500 nM mouse GTSF1. The method, boiled down: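 Sequencing of uncleaved targets, normalised to depth and to weakly complementary targets, was the readout of this Cleave-'n-Seq assay. A transcribed, DNA-blocked target RNA library (0.1 nM) was mixed with 1 nM active affinity-purified piRISC carrying one synthetic guide, with or without 500 nM GTSF1 partner protein, in HEPES–potassium acetate buffer at 33 °C for 0–8 or 0–960 min. Three trials were pooled, k3 was capped at 0.0001 min^-1, and a burst-and-steady-state fit gave the pre-steady-state cleavage rate.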
For UAGAGUGUCACCUUCUCUGAGAGAUAUUGA, the “pre-steady-state target cleavage rate” value was determined as 0.0679 ± 0.016.
The value for UAGUGACUCACCUUCUGUGAGAGAUAAACA was 0.124 ± 0.016; that for UAGUCUGUCACCUUCUCUCAGAGAUUAAGA was 0.0365 ± 0.01.
The figure for UAGUGUGUCACCUUCUCUGAGAGAUUAAACA is 0.379 ± 0.043; for UAGUGUGUCACCUAGACUGAGAGAUUAACA it is 0.0111 ± 0.0031; for AUCACUGUCACCUUCUCUCAGAGAUAUUGA it is 0.00736 ± 0.0043.
Regarding UAGUCUGUCUCCUUGUCUGAGAGAUUAACA, the “pre-steady-state target cleavage rate” value was determined as 0.173 ± 0.024.
The value for UAGUGACACACCUUCUCUGAGAGAUUAUCA was 0.265 ± 0.047; that for UUCACUGUCACCUUCUCUUGAGAGAUUAACA was 0.129 ± 0.043; that for UACACUGUCACCUUCCCUGAGAGAUUAACA was 0.292 ± 0.042.
The value for UAGUGAGUCACCUUCUCUGAGAGAUUGACA was 0.316 ± 0.045; that for UAGUGACUGACCUUCACUGAGAGAUUAACA was 0.237 ± 0.035.
The value for AUCACAGUCACCUUCUCUGAGACAUUAACA was 0.225 ± 0.017; that for UAGUCUGUCACCAUCUCUGACAGAUUAACA was 0.0239 ± 0.0062.
With UAGUGAGUCACCUUCUCUCAGUGAUUAACA, the “pre-steady-state target cleavage rate” value came out at 0.00654 ± 0.0044.
The value for UAGUGACUCACCUUCUCUGAGAGCUUAACA was 0.361 ± 0.048; that for AUCACUCUCACCUUCUCUGAGAGAUUAUCA was 0.106 ± 0.021; that for UAGUCUGUCACCUUCUCUGAGUCAUUAACA was 0.00996 ± 0.0019.
The value for AUCACUGUCAGCUUCUCUGAGACAUUAACA was 0.0098 ± 0.0024; that for UAGUCUGUCUCCUUCUCUGAGAGAUAUUGA was 0.00473 ± 0.0035.
The figure for AUCACUGUCACCUUGUCUGAGAGAUUAUGA is 0.393 ± 0.089; for UAGUGACAGACCUUGUCUGAGAGAUAAACA it is 0.0136 ± 0.0037; for UAGUCUGUCACCUUCUCUGAGAGAUUAAUA it is 0.23 ± 0.031.
Regarding AUCACUGUCACGAUCUCUGAGAGAUUAAGA, the “pre-steady-state target cleavage rate” value was found to be 0.0977 ± 0.015.
The value for UAGACUGUCACCUUCUCUAAGAGAUUAACA was 0.372 ± 0.023; that for UAGACUGUCACCUUCUCAGACAGAUUAACA was 0.0916 ± 0.0075; that for UAGUGACUCAGCUUCUCUGACAGAUUAACA was 0.0276 ± 0.0052.
Turning to UAGUGUGUCACCUUUUCUGAGAGAUUAACA, the “pre-steady-state target cleavage rate” value was found to be 0.598 ± 0.046.
The figure for UAGUGUGUCACCUUCUCAGAGAGAUUAUCA is 0.158 ± 0.025.
The figure for UAGUGUGUCACCUUCUCUGAGGGAUUAACA is 0.348 ± 0.023.
The value for UAGUCUGUCACCUUCUCUCUGAGAUUAAGA was 0.00594 ± 0.0036; that for UUCACUGUCACCUUCUCUGAGAGAUUAGACA was 0.229 ± 0.038.
As for UAGACUGUCACCUUCUCAGAGAGAUUUUGA, the “pre-steady-state target cleavage rate” value worked out at 0.0141 ± 0.0054.
On to UAGACUGUCACCAUCUCUGAGAGAUUUACA, for which the “pre-steady-state target cleavage rate” value turned out to be 0.23 ± 0.033.
The figure for UUCACUGUCUCCUUCUCUGAGAGAAUAACA is 0.278 ± 0.042.
The value for UAGACUGACAGCUUCUCUGAGAGAUUAACA was 0.64 ± 0.037; that for UAGUGUGUCACCAACUCUGAGAGAUUAAGA was 0.044 ± 0.011.
The figure for UAGUGUGUCACCUUCUCGGAGAGAUUAACA is 0.232 ± 0.014; for UAGAGAGUCACCUUCUCUGAGAGAUUUUGA it is 0.0566 ± 0.018; for UAGUCAGUCACCUUGUCUGAGAGAUUAACA it is 0.182 ± 0.025.
UUCACUGUCACCUUCGUCUGAGAGAUUAACA: the “pre-steady-state target cleavage rate” value was determined as 0.11 ± 0.019.
For UAGUGUGUCACCUUCUCUGAGAGAAAAACA, the “pre-steady-state target cleavage rate” value turned out to be 0.111 ± 0.022.
Consider UUCACUGUCACCUUCAGAGAGAGAUAUUGA, for which the “pre-steady-state target cleavage rate” value is 0.022 ± 0.011.
The figure for UAGUCUGUGACCUUCUCUGAGAGAUUAUGA is 0.0556 ± 0.013; for UAGUCUGUCACCCUUCUCUGAGAGAUUAACA it is 0.5 ± 0.037.
For the sequence UAGACUGUCACCAACUCUGAGAGAUUAACA, the “pre-steady-state target cleavage rate” value amounted to 0.373 ± 0.039.
Regarding UACACUGUCACCUUCUCUGAGAAAUUAACA, the “pre-steady-state target cleavage rate” value stood at 0.189 ± 0.021.
The value for UAGUGACUCACGUUCACUGAGAGAUUAACA was 0.215 ± 0.025; that for AUCACUGUCACCUUCUCUGAGAGUUUAUCA was 0.753 ± 0.19; that for AUCACUGUGUGCUUCUCUGAGAGAUUAAGA was 0.00894 ± 0.0029.
For UACACUGUCUCCUUCACUGAGAGAUUAACA, the “pre-steady-state target cleavage rate” value was 0.353 ± 0.025.
The value for UAGUGACACAGCUUCUCAGAGAGAUUAACA was 0.0162 ± 0.0039.
On to UAGACUGUCACCUUCUCUGAAGAUUAACA, for which the “pre-steady-state target cleavage rate” value worked out at 0.00926 ± 0.0017.
The figure for UAGUGUGCACCUUCUCUGAGAGAUUAACA is 0.515 ± 0.045; for UAGUGUGACACCUUCUCUGACAGAUUAACA it is 0.203 ± 0.018; for UACACUGUCACCUUGUCUGAGAGUUUAACA it is 0.442 ± 0.11.
The figure for UAGUGUGACACCUUCUCAGAGAGAUUAACA is 0.188 ± 0.017; for UAGUGACAGACCUUCUCUCAGAGAUUAUCA it is 0.0128 ± 0.0053; for UUCACUGUCACCUUCUCUGAGAGUUUAUGA it is 0.71 ± 0.18.
The figure for UAGUGUGUCACCUUCUCUGAGACAAUAACA is 0.117 ± 0.031.
Take UUCACUCUCAGCUUCUCUGAGAGAUUAACA: the “pre-steady-state target cleavage rate” value is 0.177 ± 0.019.
The value for UAGUGACAGUCCUUCCCUGAGAGAUUAACA was 0.0208 ± 0.0049; that for UAGACUGUCACCUACUCUGAGAGAUUUACA was 0.254 ± 0.034.
The value for AUCACUGUCACCUAGACUGAGAGAUUAACA was 0.0469 ± 0.011.
Take UAGUGAGUCAGGUUCUCUGAGAGAUUAAGA: the “pre-steady-state target cleavage rate” value was determined as 0.0225 ± 0.0047.
The figure for UACACUGACACCUUCUCUGACAGAUUAACA is 0.384 ± 0.032.
The figure for UAGUGACUCACCUUCACUGAGAGAAUAACA is 0.046 ± 0.017; for UAGUCUGUCACCUUUCUCUGAGAGAUUAACA it is 0.606 ± 0.026.
The value for UACACUGUCACCUUUCUGAGAGAUUAACA was 0.444 ± 0.027.
Consider UAGUCUGUCACCUUCUCUGAGAGAUAAAGA, for which the “pre-steady-state target cleavage rate” value stood at 0.0284 ± 0.0084.
The value for UAGUCUGUCACGCUUCUCUGAGAGAUUAACA was 0.506 ± 0.025; that for UUCACUGUCACCUUCUCUGAAGAUUAACA was 0.038 ± 0.013.
Consider AUCACUGUCACCUUCUCUGAGAGAUUUAACA, for which the “pre-steady-state target cleavage rate” value was determined as 0.548 ± 0.06.
The value for UAGUCUGUCACCUUCUCUGAGAGAUAAACA was 0.344 ± 0.039.
The figure for UUCACUGUCUCCUUCUCUGAGACAUUAACA is 0.08 ± 0.011; for UUCACUGUCACCUUCUCUGAGACUAUAACA it is 0.00638 ± 0.0027; for UUCACUGACACCUUCUCUGAGAGAAUAACA it is 0.451 ± 0.087.
The value for AUCACUGUCACCUUCACUGAGAGAUUAUCA was 0.309 ± 0.044.
As to AUCACUGUGACCUUCUCUGAGAGAUUAUCA, the “pre-steady-state target cleavage rate” value was found to be 0.199 ± 0.023.
For UAGACAGUCACCUUCACUGAGAGAUUAACA, the “pre-steady-state target cleavage rate” value turned out to be 0.324 ± 0.019.
The value for UUCACUGUCACCUUCUCUGAGAGAUUAUGA was 0.107 ± 0.022; that for UAGUGACAGUGGUUCUCUCUCAGAUUAACA was less than 0.0001.
The value for UUCACUGUCACCUACUCUGAGAGAUUAACA was 0.61 ± 0.032; that for UUCACUGUCGCCUUCUCUGAGAGAUUAACA was 0.665 ± 0.043; that for UACUCUGUCACGUUCUCUGAGAGAUUAACA was 0.636 ± 0.028.
With UUCACUGGCACCUUCUCUGAGAGAUUAACA, the “pre-steady-state target cleavage rate” value came to 0.728 ± 0.15.
The value for UAGUGACAGUCCUUCUCUGAGAGAUUUACA was 0.0354 ± 0.0061; that for UAGUGACACACCUUCUCUGAGAGAUUUAACA was 0.215 ± 0.024.
The figure for UAGUGACAGUCCUUCUCUGAGACAUUAACA is 0.0121 ± 0.0033; for AUCACUGUCACCUUCUGUGAGACAUUAACA it is 0.163 ± 0.016; for UAGUCUGUCACCAUCUCUGAGAGAAUAACA it is 0.232 ± 0.038.
The value for UAGUGACUGACCUUCUCAGAGAGAUUAACA was 0.0136 ± 0.0049.
